Measured values from PMC3681933.
These are yes or no findings as the source states them, for the method shown. Binding seen in cells or lysates may run through a third protein. Some results given as binding are weak or reduced against the parent protein; the word gives no strength. Where a sequence is shown, tags or fusion partners need not be part of it.

Sequences of proteins named here, by UniProt entry; tags and fusion partners are left off. A change or cut given only in a name is not applied to a line headed by its entry.
UniProt P06780: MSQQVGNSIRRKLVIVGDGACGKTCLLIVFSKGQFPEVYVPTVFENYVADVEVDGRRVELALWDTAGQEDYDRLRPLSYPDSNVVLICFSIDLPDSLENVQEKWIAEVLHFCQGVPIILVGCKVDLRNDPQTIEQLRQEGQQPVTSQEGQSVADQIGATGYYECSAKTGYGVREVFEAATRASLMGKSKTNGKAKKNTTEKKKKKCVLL
UniProt P19073: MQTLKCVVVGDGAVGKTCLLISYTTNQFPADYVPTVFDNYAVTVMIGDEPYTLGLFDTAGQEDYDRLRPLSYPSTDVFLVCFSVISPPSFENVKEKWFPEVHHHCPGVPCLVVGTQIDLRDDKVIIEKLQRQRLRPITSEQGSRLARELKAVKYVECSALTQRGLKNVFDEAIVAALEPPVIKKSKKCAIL

How the values were obtained:
Experiment in all cases: pull-down; GST or GST fusions induced with 2% galactose for 4 h in yeast co-expressing 3HA-Msb1 (strains YEF473A wild type or YEF1395 msb1Δ, endogenous BOI1 and BOI2 present); glutathione-Sepharose beads from Triton X-100-solubilized cell lysates; anti-HA blot
GST-Rho1 (S. cerevisiae) = GST-Rho1 (S. cerevisiae) (UniProt P06780)
GST-Boi2 (S. cerevisiae) = target: T1, GST-Boi2 (S. cerevisiae) (UniProt P39969)
T1 sequence: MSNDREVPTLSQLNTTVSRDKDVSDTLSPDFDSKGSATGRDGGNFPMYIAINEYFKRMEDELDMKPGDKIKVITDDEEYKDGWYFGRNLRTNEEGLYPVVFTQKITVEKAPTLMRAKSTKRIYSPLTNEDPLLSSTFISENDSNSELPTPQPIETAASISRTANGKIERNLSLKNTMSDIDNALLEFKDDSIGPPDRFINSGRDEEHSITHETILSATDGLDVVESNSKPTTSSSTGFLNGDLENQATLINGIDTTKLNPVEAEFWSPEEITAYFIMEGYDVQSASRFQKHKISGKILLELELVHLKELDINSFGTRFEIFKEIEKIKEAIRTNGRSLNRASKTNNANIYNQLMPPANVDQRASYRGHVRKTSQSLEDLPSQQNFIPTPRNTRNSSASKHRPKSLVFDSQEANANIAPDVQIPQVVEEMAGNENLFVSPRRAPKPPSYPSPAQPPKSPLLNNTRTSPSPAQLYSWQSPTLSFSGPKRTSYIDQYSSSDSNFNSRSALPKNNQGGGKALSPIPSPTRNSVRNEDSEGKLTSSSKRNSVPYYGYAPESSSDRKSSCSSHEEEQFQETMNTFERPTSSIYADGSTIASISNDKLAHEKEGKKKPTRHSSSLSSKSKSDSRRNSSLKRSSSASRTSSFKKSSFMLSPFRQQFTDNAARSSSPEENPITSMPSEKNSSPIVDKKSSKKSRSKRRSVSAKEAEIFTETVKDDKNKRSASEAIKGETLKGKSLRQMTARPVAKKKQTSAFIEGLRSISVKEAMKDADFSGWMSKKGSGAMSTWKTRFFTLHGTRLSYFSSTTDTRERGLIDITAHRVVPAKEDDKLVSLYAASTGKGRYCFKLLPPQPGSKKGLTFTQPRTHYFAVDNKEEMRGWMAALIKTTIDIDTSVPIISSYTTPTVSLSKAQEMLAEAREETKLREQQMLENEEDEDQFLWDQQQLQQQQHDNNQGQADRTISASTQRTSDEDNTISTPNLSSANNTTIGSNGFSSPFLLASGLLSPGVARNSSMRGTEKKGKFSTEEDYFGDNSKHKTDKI

[1] = target: T2, GST-Cdc24 (S. cerevisiae) (UniProt P11433)
T2 sequence: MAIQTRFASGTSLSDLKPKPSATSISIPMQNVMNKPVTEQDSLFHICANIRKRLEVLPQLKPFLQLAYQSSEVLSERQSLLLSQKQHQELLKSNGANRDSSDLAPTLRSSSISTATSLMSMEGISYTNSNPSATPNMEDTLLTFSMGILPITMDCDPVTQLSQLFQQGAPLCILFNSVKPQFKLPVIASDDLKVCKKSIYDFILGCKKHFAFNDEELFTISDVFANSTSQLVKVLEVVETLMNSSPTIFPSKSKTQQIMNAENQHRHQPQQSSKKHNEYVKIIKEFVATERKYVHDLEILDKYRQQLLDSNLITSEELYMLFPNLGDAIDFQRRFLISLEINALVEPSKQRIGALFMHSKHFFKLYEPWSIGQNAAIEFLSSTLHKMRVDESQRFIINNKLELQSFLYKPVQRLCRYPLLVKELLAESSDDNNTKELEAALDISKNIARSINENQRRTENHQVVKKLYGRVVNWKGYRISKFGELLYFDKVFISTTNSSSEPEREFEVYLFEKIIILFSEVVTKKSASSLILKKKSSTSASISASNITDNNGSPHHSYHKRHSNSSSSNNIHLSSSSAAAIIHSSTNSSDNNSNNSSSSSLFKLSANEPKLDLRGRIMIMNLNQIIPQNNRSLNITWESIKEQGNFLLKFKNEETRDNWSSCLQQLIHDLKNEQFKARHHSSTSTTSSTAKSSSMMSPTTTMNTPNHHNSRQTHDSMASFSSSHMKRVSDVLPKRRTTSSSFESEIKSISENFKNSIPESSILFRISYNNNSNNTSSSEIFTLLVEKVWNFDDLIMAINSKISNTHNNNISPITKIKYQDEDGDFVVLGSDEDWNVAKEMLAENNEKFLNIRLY

[2] = target: GST-Cdc42 (Q61L) (S. cerevisiae) (UniProt P19073)
[3] = target: GST-Cdc42 (WT) (S. cerevisiae) (UniProt P19073)

B1: Msb1 tagged with three copies of HA at its N-terminus (protein, UniProt P21339 1-1137)
chain: MNDMAKPLPTPPTAEIRKSRSNSPKKAQKTNLSPNKNQNNEKNVPRSNGRTKNEHNSMDDEEFEFFHQFSREKVKGVIHVITAELKEKGPDVEFLMIPFRPEQTNDKLLTLLNQLFPLGNGQPVNEKKQLRIVSKADVWTLFQCLKYIWCRLPNSEIIGWKSYLEFKFREEDKKFPRKSFLEIMPQCLASPNHASIVYDFFDLIISISSNSRVNKMSARKISKMCAIWAFSKQIPNSDIQDYDFESAAMKSFAPNNSIQDGLDQWIPASDAMFHLLLAFLRSFVPQDLESAKLPRTLKSLLFNNQYPPRKSTAYTSETILTIPLVTLKTDVFSRKPWQLLERCNDLLDFSDHDAFEAREDYALLKSLFRKKNTVEGISRKMSQESRRLMKAMSTKHSTFQPGWAPRECIENISHLKECIEVKRLDIDDYFIWTWLSSLSFEQTSEKKKIFGRSIILEFEFDGFKKWVVFQECDITLDYNKKGQLKKKTSAQSPTTEKELPPDDFELEDPPLSKSPTLSQTYKKFQAEVPQQSTVRRDSAPDNQGIYHTVISKNALTKNKHNVNLHSFEHKISKWNPLNNLRKKSGSNSSSSSFEEKSKDAPIREEYHTNKNHKSKKEERVLSQFSTLNPDEYQLPVIETGSSNFKIEIPELMYEHDDDDSDKLKNSQKRATDSAIEELNGMVEEMMINEPDDVKISITEAETFESLTKFDQYKPSNITDDDLQSSHSSAVHSLKLSTNTNDSCADSSKYTADRKLAEPRKISEESKVNDDSSSYYSPNINNLPASRMPSQPTYSNSDSKKAFTNESRLNVLQGAVSPSQQVTPKPYKNAPGDCVSPVQQKYYQNDRRNEMSPASAPVPPSAYSPARSPQFSTNSAGFKQNTINVPVGYNDPAHVLANQPHMTYRDQHNYPSHQQKQRPFQNNIVPPELKSRNQRADASPIPQHMVPVKQGVPNLPSNVPLYQQMERMNPNHQHPVNTYKVTQPPYHNNTTNAYGNSRAGNAHMLDGKWSNNPPQMVPKGVRPNQYPQQHVNRYSPQAQPVVPAEYYNGPPPMRAPPMMSHMVPAQEPIRYTAGANRRSFPQGMQQNAYSVPAQPMGAVNSEFYLPEAPQGNKLHGNINKRQERKKLYDNIRSGNFGI
In the case of B1, the binding (GST-Rho1 (S. cerevisiae)) is reported as “binds”, the binding (GST-Boi2 (S. cerevisiae)) is reported as “binds” and the binding [1] is reported as “no binding”. For the same binder, the binding [2] was “binds” and the binding [3] was “binds”.
